From the BET-seq Pho4 binding data (Le et al. 2018)
The other results are listed elsewhere or left out. These are noisy estimates, calculated here from bound and input reads.

molecular target: T1, Pho4 (S. cerevisiae) (UniProt P07270); experiment: relative binding free energy (BET-seq); higher = weaker binding; conditions: reference: library average
T1 sequence: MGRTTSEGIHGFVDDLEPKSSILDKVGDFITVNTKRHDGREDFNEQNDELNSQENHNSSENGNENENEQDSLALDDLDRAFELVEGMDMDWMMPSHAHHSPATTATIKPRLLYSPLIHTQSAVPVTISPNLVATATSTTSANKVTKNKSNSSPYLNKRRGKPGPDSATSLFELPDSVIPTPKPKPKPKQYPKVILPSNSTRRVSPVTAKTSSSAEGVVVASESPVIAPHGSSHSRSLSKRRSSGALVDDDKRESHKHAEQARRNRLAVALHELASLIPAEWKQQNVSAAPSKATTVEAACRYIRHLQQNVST

| Sequence | relative binding free energy [kcal/mol] |
| --- | --- |
| GTCAGCACGTGTGTAG | 0.03 |
| GAATACACGTGTAGTA | 0.29 |
| CTTGTCACGTGTTCGT | 0.08 |
| GGAGCCACGTGTGTGA | -0.02 |
| TATAGCACGTGGCGGT | -0.19 |
| GGTTACACGTGAAATA | 0.42 |
| GGCAGCACGTGGGCAG | -0.19 |
| GTTTGCACGTGCGATA | 0.05 |
| AAGGGCACGTGATCGT | -0.13 |
| GTTAACACGTGATGTG | 0.15 |
| AGGGTCACGTGTTACT | 0.13 |
| ATGGGCACGTGTTGCA | -0.14 |
| GTTACCACGTGATTGT | 0.04 |
| GTAATCACGTGCGGGT | 0.29 |
| TTGCACACGTGGTAGT | -0.03 |
| TATTACACGTGTTTTT | 0.05 |
| TTTAGCACGTGGGAGT | -0.08 |
| CTGGGCACGTGCAGGT | -0.07 |
| TGTGGCACGTGTGTTT | -0.02 |
| CTTGACACGTGTATGT | 0.05 |
| TGTTGCACGTGTTATT | -0.08 |
| AGTTGCACGTGGTAAG | -0.21 |
| TGTCTCACGTGGAATT | 0.29 |

| Sequence | relative binding free energy [kcal/mol] |
| --- | --- |
| ATTTACACGTGGTATA | -0.11 |
| AAAGTCACGTGATTTA | 0.2 |
| TAGGGCACGTGATTAG | -0.11 |
| CAATGCACGTGGGGGC | -0.13 |
| ATATGCACGTGATCGG | 0 |
| CGGATCACGTGTGTGT | 0.14 |
| GTGGTCACGTGCTTAG | 0.1 |
| TATTCCACGTGGGAGG | 0.02 |
| TTTGGCACGTGTGTTC | 0 |
| GGTATCACGTGATAGA | 0.43 |
| TGGTACACGTGGTGTC | -0.07 |
| CAGGGCACGTGGGAGT | -0.19 |
| AGGGGCACGTGATTTT | -0.01 |
| TATGTCACGTGGTGGC | -0.01 |
| GTTTGCACGTGGTAGG | 0.03 |
| GATTTCACGTGTAAAT | 0.39 |
| GCGGCCACGTGGGGCG | -0.24 |
| GGAGTCACGTGGGAAT | 0.06 |
| CTGGGCACGTGGGATG | -0.31 |
| GTGGGCACGTGCGTAC | -0.14 |
| TACTGCACGTGCGTTT | 0.04 |
| GTTAGCACGTGGAAAT | 0.2 |
| TTGAACACGTGTTGAT | -0.08 |

| Sequence | relative binding free energy [kcal/mol] |
| --- | --- |
| ATGGGCACGTGGGATC | -0.02 |
| CTAGGCACGTGAGTTA | 0.04 |
| GTGAGCACGTGGGAAA | 0 |
| GGCTGCACGTGGGGCC | -0.06 |
| TGGTACACGTGGTTAA | 0.12 |
| TGGGGCACGTGGAGAG | -0.11 |
| AGTGTCACGTGGGAGC | 0.05 |
| ATAATCACGTGAAGGG | 0.26 |
| CGGGCCACGTGGTTGT | -0.04 |
| TGGCGCACGTGGTTGA | -0.14 |
| CGTTGCACGTGGTGCT | -0.01 |
| TAAATCACGTGTGCGG | 0.19 |
| TATACCACGTGGTGGG | -0.18 |
| AACGGCACGTGGAAGG | 0.12 |
| GGGGACACGTGATTGA | 0.14 |
| TGTGTCACGTGGACAG | 0.15 |
| TTGGCCACGTGTGAAT | 0.05 |
| AGTCTCACGTGGTTTG | 0.27 |
| ACAGTCACGTGGTTTT | -0.01 |
| GAGAGCACGTGTTGGG | -0.02 |
| GGAGTCACGTGAGGTG | 0.4 |
| GGCGTCACGTGGGTGC | -0.01 |
| TAAGGCACGTGCATTT | -0.17 |

| Sequence | relative binding free energy [kcal/mol] |
| --- | --- |
| TTGAACACGTGGGTGG | -0.08 |
| TGAATCACGTGATTCG | 0.4 |
| GTTGTCACGTGTGGGA | 0.19 |
| GATATCACGTGTGTCT | 0.23 |
| GTAATCACGTGGCTTT | 0.05 |
| AGCGTCACGTGTTGTA | 0.1 |
| TTGGCCACGTGAGGAG | 0.16 |
| TGATGCACGTGGAAGA | 0.04 |
| TGACGCACGTGGGGGC | -0.18 |
| TAATGCACGTGCAGGG | -0.16 |
| CTTTCCACGTGTTAGG | 0.17 |
| GTTCGCACGTGTGCGT | -0.01 |
| GGTGTCACGTGTCTGT | 0.15 |
| CGATTCACGTGTGTAT | 0.32 |
| TTGTCCACGTGTGTTA | -0.04 |
| TGCGTCACGTGTGGGG | 0.09 |
| AGGTACACGTGATAGG | 0.24 |
| GTTTGCACGTGTGTAG | 0.05 |
| GTACCCACGTGTGGGG | -0.09 |
| GAAGTCACGTGATGTT | 0.24 |
| GAAAGCACGTGGGGAT | -0.16 |
| CAAATCACGTGGTGTG | -0.07 |
| TGGCGCACGTGCATGT | -0.17 |

| Sequence | relative binding free energy [kcal/mol] |
| --- | --- |
| GGTTACACGTGAGGTG | 0.27 |
| TTCATCACGTGAGGGG | 0.37 |
| AAGGACACGTGTCTGG | 0.17 |
| TTAAGCACGTGTGCGG | -0.12 |
| TGCTTCACGTGTGGCG | 0.11 |
| TTGGGCACGTGCACTG | -0.1 |
| TTGTTCACGTGCTGCG | 0.23 |
| ACTGACACGTGTGGTT | -0.07 |
| GGTGACACGTGTTTTA | -0.03 |
| TATCTCACGTGATAGT | 0.2 |
| GTTCGCACGTGGACGG | 0.07 |
| TCCTGCACGTGGGGTG | -0.21 |
| GATCACACGTGGTTTG | 0.23 |
| ATGGACACGTGCGGTG | -0.04 |
| CGTTTCACGTGTTTTT | 0.22 |
| TGTATCACGTGCTTAA | 0.04 |
| GGAGTCACGTGCGGAG | 0.04 |
| ATTTGCACGTGTGGAG | 0.03 |
| TCTTACACGTGGCAGG | 0.19 |
| ATGAGCACGTGAGGAT | 0.05 |
| GGTCACACGTGGGGCG | 0.05 |
| ATAATCACGTGTGGTA | 0.04 |
| GACTTCACGTGTTGTG | 0.13 |
